In PubChem BioAssay AID1259400 (National Center for Advancing Translational Sciences (NCATS), 2018):
Out of some 350,000 compounds screened, about 2,100 (0.6%) were called active. The inconclusive results got no clear call from the source; some entries with a clear call stand among them for comparison.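 Rule for the calls: active = activity change of -60% or lower, but not beyond a set lower limit; inconclusive = change between -60% and -40%, or beyond the set limit; inactive = change above -40%.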

molecular target: Relaxin receptor 1 (Homo sapiens) (UniProt Q9HBX9); experiment: qHTS Assay for Antagonists of the Relaxin Receptor RXFP1; details: HEK293-RXFP1, relaxin-stimulated cAMP HTRF, 30 min; at 57.5 µM; hits give low values
Source text: The relaxin hormone is involved in the variety of biological functions in normal tissues and diseases. The role of relaxin is well-established in female reproduction and parturition, mammary gland and endometrial development, maintenance of myometrial quiescence during pregnancy. Relaxin signaling through its G protein-coupled receptor (GPCR) RXFP1 results in ECM remodeling through regulation of collagen deposition, cell invasiveness, proliferation and overall tissue homeostasis. […] Recombinant human relaxin (rhRlx) is currently being tested in clinical trials as a protective agent in congestive heart failure, in treating severe preeclampsia, and as an anti-fibrotic agent in various organs. […] Upon relaxin binding RXFP1 activation leads to the activation of adenylate cyclase (AC) via G?s. cAMP will activate PKA, which phosphorylates many signaling proteins. Thus, detection of cAMP increase is an easy and reliable indication of relaxin receptor activation. To screen for antagonists of the relaxin receptor, a HEK293T cell line stably transfected with RXFP1 was used. RXFP1 activation by relaxin in presence of various concentrations of tested compounds was assayed by changes in cAMP levels as detected with a time-resolved fluorescence energy transfer (TR-FRET) cAMP detection kit.
For the primary screening, we used HTRF(R) (Homogenous Time-Resolved Fluorescence) cAMP HiRange assay (Cisbio Bioassays, 62AM6PEJ). Presence of cAMP in the cell lysate disrupts binding between the Cryptate-labeled anti-cAMP and d2-labeled cAMP pair, leading to a decrease in TR-FRET signal. The libraries were screened at two doses (57microM and 11microM), followed by a confirmation of the hits at 7-point serial dilution in the range of final concentrations [57microM - 78nM]. Data were normalized to the controls for basal activity (buffer only) and 100% activity (5 nM porcine relaxin). The EC50 values were determined from concentration-response data modeled with the standard Hill equation. NCGC Assay Protocol Summary: HiHEK (Hawaiian HEK293 LGR7 stably transfected with human RXFP1) were grown in the following media: DMEM+10%FBS+Pen/Strep + Geneticin (1mg/ml). For the assay, the cells were seeded in DMEM+Pen/Strep (with no serum & selective antibiotics) at 2,100 cells/ 3microl/well with MultiDrop Combi dispenser (Thermo Scientific, Logan, UT) onto white tissue culture treated solid bottom1536-well plates (Greiner #789173-F) and allowed to attach/recover overnight at 37 degrees C, 5% CO2. Next, 23nl/well of compound solutions in DMSO were transferred into wells with a pintool (Kalypsis, San Diego, CA). […] EC80 (relaxin at 50pM final concentration) was dispensed to the rest of the plate except columns 1&2 which were used as a negative control (EC0, buffer only), 1microl/well also. The cells were stimulated by relaxin in the presence of compounds for 30 minutes at 37 degrees C, 5% CO2. The detection reagents were prepared individually by dilution in Lysis buffer (supplied with the assay kit) just prior to dispensing. 1microl/well of cAMP-d2 and 1microl/well anti-cAMP-Eu3+-Cryptate antibodies were added simultaneously with BioRAPTR FRDtrade mark Workstation (Beckman Coulter). The plates were incubated at ambient temperature for 30 minutes and, then, FRET signal was read on Envision plate reader (PerkinElmer, Waltham, MA), at wavelengths 340nm (excitation), 615nm & 665nm (emission of donor and acceptor channels respectively).
% is set by controls: 0 for no effect and ±100 for the full control effect.

Sequence of UniProt Q9HBX9 (Q9HBX9 whole entry, looked up): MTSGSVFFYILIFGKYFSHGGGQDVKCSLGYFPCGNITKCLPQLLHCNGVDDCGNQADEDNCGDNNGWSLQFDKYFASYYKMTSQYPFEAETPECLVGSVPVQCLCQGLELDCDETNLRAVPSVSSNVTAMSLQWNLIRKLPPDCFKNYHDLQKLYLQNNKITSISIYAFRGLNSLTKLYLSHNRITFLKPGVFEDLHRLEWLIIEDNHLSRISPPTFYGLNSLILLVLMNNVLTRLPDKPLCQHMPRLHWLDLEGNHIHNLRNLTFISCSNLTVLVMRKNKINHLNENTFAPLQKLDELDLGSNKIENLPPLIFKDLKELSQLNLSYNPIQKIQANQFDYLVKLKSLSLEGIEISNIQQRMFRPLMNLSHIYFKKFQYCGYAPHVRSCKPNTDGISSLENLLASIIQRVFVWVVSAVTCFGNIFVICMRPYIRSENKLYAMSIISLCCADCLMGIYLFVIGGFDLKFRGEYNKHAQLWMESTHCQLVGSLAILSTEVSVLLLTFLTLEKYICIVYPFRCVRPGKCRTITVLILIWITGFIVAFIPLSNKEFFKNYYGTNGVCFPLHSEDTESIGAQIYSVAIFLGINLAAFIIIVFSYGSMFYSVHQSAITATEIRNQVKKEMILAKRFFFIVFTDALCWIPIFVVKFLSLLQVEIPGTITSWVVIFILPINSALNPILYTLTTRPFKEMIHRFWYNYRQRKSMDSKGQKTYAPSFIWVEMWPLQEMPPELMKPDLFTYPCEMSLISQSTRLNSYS

Compound | activity change, negative = inhibition
COc1cccc(C2CC(c3cccs3)=NN2C(=O)c2ccco2)c1O (stereo not drawn) | inconclusive: -50.1%
CCOC(=O)N1CCc2c(sc(NCc3ccc(N(C)C)cc3)c2C(=O)Nc2ccccc2OCC)C1 | inactive: -6.37%
CCc1cccc(C)c1NC(=O)COC(=O)C1CC(=O)N(CCc2ccc(OC)c(OC)c2)C1 (stereo not drawn) | inactive: -12.6%
O=C(CCC(=O)N(CC(=O)NC1CCCC1)Cc1ccccc1Cl)Nc1nccs1 | inconclusive: -50.1%
Oc1ccccc1Nc1nc(NCc2ccccc2)c2ccccc2n1 | active: -79%
C/C(=N\NC(=O)CSc1nc(C)[nH]c1[N+](=O)[O-])c1ccc(F)cc1 | inconclusive: -46.4%
C=C1CC(Cn2cc(Br)c(=O)[nH]c2=O)(c2ccc(-c3ccccc3)cc2)OC1=O (stereo not drawn) | active: -89.7%
CCCNC(=O)c1ccccc1NC(=O)c1ccc2c(=O)n3c(nc2c1)CCC3 | inconclusive: -41.4%
Cc1cnn(-c2nc(-c3ccccc3)cc(-c3ccccc3)n2)c1 | inconclusive: -56.1%
COc1ccc(OC)c(/C=C/C(=O)N2CCCc3ccccc32)c1 | inconclusive: -49.6%
Cc1ccc(NC(=O)CCN2CCN(C/C=C/c3ccccc3)CC2)cc1 | inactive: -3.55%
O=C(COc1ccc2c(c1)CCC2)N1CCN(c2cccc(C(F)(F)F)c2)CC1 | inconclusive: -41.1%
COc1ccc(Nc2cc(C(=O)NCCCN(C)Cc3ccccc3)c3ccccc3n2)cc1OC | inconclusive: -40%
N#C/C(=C/c1cccc(O)c1)C(=O)NCc1ccc(Cl)cc1 | inconclusive: -44.8%
COc1cc(OC)c(NC(=O)C(C)n2c(=O)cc(-c3ccccc3)c3c(C)nn(C)c32)cc1Cl (stereo not drawn) | inactive: -12.2%
OC(CNC1CCCCC1)CON=C1CCSc2c(Cl)cccc21 (stereo not drawn) | inconclusive: -59.7%
Cc1ccc(/C=C/C(=O)N2CCc3ccccc32)o1 | inconclusive: -43%
COc1cc(OC)cc(-c2cc3nc4c(c(N5CCN(c6ncccn6)CC5)n3n2)CCCC4)c1 | inactive: -18.6%
NC(=O)c1nsc(C(=O)N(CC(=O)NCc2ccco2)c2ccccc2F)c1N | inconclusive: -46.1%
N#C/C(=C\c1ccccc1)C(=O)N(c1ccccn1)C1CCCCC1 | inconclusive: -40.7%
CCOc1ccc(-n2cc(-c3ccccc3)c3c(=O)[nH]cnc32)cc1 | active: -97.1%
FC(F)(F)c1ccc(-c2n[nH]c(=S)o2)nc1 | inconclusive: -44.4%

Compound | activity change, negative = inhibition
Cc1ccc(OCC(=O)NNc2c3ccccc3nc3ccccc23)cc1 | active: -67.4%
OCCN1CCN(CCCN2c3ccccc3Sc3ccc(Cl)cc32)CC1 | inconclusive: -54.8%
COc1ccccc1-c1cc(C(=O)Nc2c(C)nn(Cc3ccc(Cl)cc3)c2C)no1 | inconclusive: -51.8%
COc1ccc(NC(=O)CSc2nc(-c3ccccc3)cc(-c3cc(OC)c(OC)c(OC)c3)c2C#N)c(OC)c1 | inactive: -2.22%
CC(C)(C)c1ccc(C(=O)Nc2ccc3nc(SCC(=O)N4CCCC4)sc3c2)cc1 | active: -101%
Cc1ccc(C)c(NC(=O)NNC(=O)c2cc3ccccc3cc2O)c1 | inconclusive: -49.6%
COc1ccc(-c2nc(CCNC(=O)Cc3ccc(F)cc3)cs2)cc1 | inactive: -25.1%
CCC/C=C/c1ccc(CN2C(CC(C)C)C(=O)N(Cc3cn(CC4CCCCC4)nn3)CCS2(=O)=O)cc1 (stereo not drawn) | inactive: 6.47%
Cc1cccc(C(=O)Nc2nc3c(s2)CCCC3)c1 | active: -86.9%
COc1ccccc1C=NNC(=O)NN=Cc1ccccc1OC | inconclusive: -56.2%
CCOC(=O)c1cnc2c(C)c(Cl)ccc2c1N1CCN(CC)CC1 | inconclusive: -47.7%
O=C(Nc1cccc2ccccc12)N1CCCN(c2c(Cl)cncc2Cl)CC1 | inconclusive: -44.2%
COc1ccc(C=C2C=C(C(C)(C)C)C(=O)C(C(C)(C)C)=C2)cc1OC | active: -88%
CN1C(=O)c2ccccc2Sc2ccc(NC(=O)NCc3ccccc3Br)cc21 | inconclusive: -48.9%
Cc1cccc(OC(C)C(=O)N2CCC(c3nc4ccccc4o3)CC2)c1C (stereo not drawn) | active: -63.1%
COc1ccc2c(c1)c(CC(=O)NCc1cc([N+](=O)[O-])ccc1O)c(C)n2C(=O)c1ccc(Cl)cc1 | active: -84.1%
COc1ccc(OCc2cc(C(=O)N(C)C3CCOC3)no2)c(Cl)c1 (stereo not drawn) | inactive: 6.97%
CC(OC(=O)c1ccc([N+](=O)[O-])o1)C(=O)Nc1nc(-c2ccc(F)c(F)c2)cs1 (stereo not drawn) | inconclusive: -43.8%
C=Cc1ccc2c(c1)N(C)C(=C)S2 | active: -119%
CC(C)(C)c1ccc(C(=O)N(Cc2ccc(F)cc2)Cc2ccco2)cc1 | active: -78.5%
O=c1[nH]cnc2c1c(-c1ccccc1)cn2-c1ccccc1 | active: -75.1%
